# Measurements from the supplement of paper PMC3334620.
# Over roughly 33,000 sequences, “E-score (-0.5 to 0.5)” has its median near -0.041; the highest 2% begin near 0.37. Some of the results follow.
# Molecular target: T1, Ecm22 (UniProt Q05958)
# T1 sequence: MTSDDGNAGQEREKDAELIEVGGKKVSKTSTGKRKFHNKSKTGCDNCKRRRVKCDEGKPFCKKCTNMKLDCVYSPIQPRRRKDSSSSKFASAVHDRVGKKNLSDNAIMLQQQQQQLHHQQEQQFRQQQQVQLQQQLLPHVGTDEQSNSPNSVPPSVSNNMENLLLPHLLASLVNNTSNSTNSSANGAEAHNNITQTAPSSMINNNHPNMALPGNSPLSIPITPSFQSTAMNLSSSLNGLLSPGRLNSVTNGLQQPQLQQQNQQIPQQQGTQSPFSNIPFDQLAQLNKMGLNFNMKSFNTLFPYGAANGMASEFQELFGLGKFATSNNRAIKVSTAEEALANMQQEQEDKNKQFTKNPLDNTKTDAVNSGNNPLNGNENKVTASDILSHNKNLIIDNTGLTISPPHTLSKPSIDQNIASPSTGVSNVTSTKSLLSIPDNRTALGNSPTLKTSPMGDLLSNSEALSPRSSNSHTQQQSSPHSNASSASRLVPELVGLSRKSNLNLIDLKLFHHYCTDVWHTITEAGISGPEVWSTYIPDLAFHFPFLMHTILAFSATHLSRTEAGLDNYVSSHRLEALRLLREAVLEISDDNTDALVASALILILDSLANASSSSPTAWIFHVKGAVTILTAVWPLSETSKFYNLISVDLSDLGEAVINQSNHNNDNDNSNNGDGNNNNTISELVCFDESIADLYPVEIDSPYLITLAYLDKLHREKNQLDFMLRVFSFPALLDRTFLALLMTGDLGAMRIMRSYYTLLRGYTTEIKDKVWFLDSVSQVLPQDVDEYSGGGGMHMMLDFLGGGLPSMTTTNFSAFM
# Test: PBM E-score (8-mer binding enrichment) (E-score (-0.5 to 0.5)); higher = stronger / more preferred TF binding; most listed sequences are background and not binding sites
# Conditions: protein concentration: 200 nM; construct: GST-full length
# Summary of the method: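 Bound GST-tagged yeast transcription factors, applied at about 100-200 nM to double-stranded universal all-10-mer Agilent arrays, were detected with fluorescent anti-GST. Scans were normalised with masliner. A modified Wilcoxon-Mann-Whitney statistic, the E-score, was assigned to each ungapped eight-base word pooled with its reverse complement by the Universal PBM Analysis Suite.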
row,Sequence,PBM E-score
1,GTGGCGTA,0.042
2,TCGACCAA,-0.159
3,GCGTAGAC,-0.064
4,CTGTTACC,0.0707
5,ACCGGCGC,0.0279
6,ATGTTGTG,0.0154
7,AGGAACTG,-0.231
8,CATTCTTA,-0.183
9,ACCGCCAA,-0.136
10,GGCAGCCA,-0.374
11,CCTTCTTA,-0.0722
12,CAGATCCC,0.0114
13,CACAACCG,0.182
14,ATAAGATC,0.0584
15,ATGTGGAC,-0.148
16,CTACTTGA,-0.208
17,GCTCTAGA,-0.226
18,ATGGACGA,-0.00268
19,ACCAAAAC,-0.0198
20,ATGTCTCC,-0.0375
21,ACCGGGAG,-0.0947
22,TAACACTA,0.164
23,GGACCGGA,0.166
24,AGGACCGG,-0.196

row,Sequence,PBM E-score
1,GAATATCA,0.0564
2,CTGGACGC,-0.26
3,CGTGAAGA,-0.0551
4,AGGTCATA,0.0107
5,CAGTCGAG,-0.146
6,GGACTAAC,-0.155
7,ACATAAAT,-0.0004
8,AACCTCCT,-0.0581
9,GACCTGGA,-0.102
10,AAAGAATG,0.0134
11,AGTGGCCC,-0.194
12,CAATCCGA,0.16
13,GCCCCACC,0.0628
14,AGCCTAAC,-0.0712
15,AGAAGATC,0.1
16,CCCCGGGA,-0.203
17,ACTACCCA,-0.118
18,AAACCACC,-0.123
19,CCTGCGGC,-0.277
20,CCGAGCTC,0.219
21,AGCAACAT,-0.112
22,CCAGTGCA,-0.00557
23,TTACAAAA,0.074
24,ATAATCAC,0.0687

row,Sequence,PBM E-score
1,GGCCCAGA,-0.24
2,AAGCCGAT,0.0104
3,CCGTGCTC,-0.064
4,CCTCGTCC,-0.238
5,CCTCTGAA,-0.0798
6,ATATGTTC,0.203
7,GGTATGAC,-0.125
8,AACGCACC,0.113
9,ACTGTATC,0.0611
10,ATCTTCGC,0.175
11,GGAAATAA,0.11
12,AAAAGGGG,-0.159
13,ATACAGTC,-0.122
14,ATGGAATG,-0.129
15,CCCCGGCA,-0.256
16,CATTACAG,-0.0449
17,AGGCATAG,-0.159
18,TCGTAGAA,0.384
19,ATAGGTGC,-0.00608
20,CGAGATAA,0.264
21,CGCCATCA,-0.223
22,GGGGTGTA,-0.159
23,CGGGTTAA,0.252
24,CATGACGG,-0.253

row,Sequence,PBM E-score
1,AGCACCTA,-0.239
2,AACAGAAC,-0.0853
3,TAGAAGGA,-0.247
4,AGGCTCTG,-0.168
5,CACCTTAC,-0.0784
6,ATAGCGTG,0.0189
7,ATTGATTC,0.0698
8,ACACATGA,-0.0752
9,ACCGTCTG,-0.112
10,AGGATAGC,0.116
11,TCAACTGA,-0.205
12,AAATGGTG,-0.0494
13,CCGGGCCG,0.0318
14,TATCCAGA,-0.129
15,CAGGTCAG,-0.0995
16,GCAGGTCA,-0.0813
17,AACCGGGT,-0.0312
18,ACACAGAA,-0.1
19,AAGCAGCC,-0.226
20,GGAAACGA,0.426
21,TCCGCCGA,0.0363
22,AATGCCAT,0.00168
